Reference: the supplement of paper PMC8728848
This is one part of the list.

Experiments:
Experiment in all cases: glycan array binding signal (z-score within array); higher = stronger binding
Conditions in all cases: glycan notation: IUPAC condensed, linker removed
[1] = biological target: Gal(b1-3)GlcNAc(b1-3)Gal(b1-4)GlcNAc(b1-2)Man(a1-3)[Gal(b1-3)GlcNAc(b1-3)Gal(b1-4)GlcNAc(b1-2)Man(a1-6)]Man(b1-4)GlcNAc(b1-4)GlcNAc
Procedure, shortened: (§1)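 The binding signal is a Z-score computed within each array and averaged over linkers. Arrays of the same protein sequence at different concentrations or buffers were also averaged together. Data originate from 3228 arrays in the Consortium for Functional Glycomics database, kept only where the protein sequence was available.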

[2] = biological target: Gal(b1-3)GlcNAc(b1-3)Gal(b1-4)GlcNAc(b1-2)[Gal(b1-3)GlcNAc(b1-3)Gal(b1-4)GlcNAc(b1-6)]Man(a1-6)[Gal(b1-3)GlcNAc(b1-3)Gal(b1-4)GlcNAc(b1-2)Man(a1-3)]Man(b1-4)GlcNAc(b1-4)[Fuc(a1-6)]GlcNAc
Procedure, shortened: as §1

[3] = biological target: Gal(b1-3)GlcNAc(b1-3)Gal(b1-4)GlcNAc(b1-3)Gal(b1-4)GlcNAc(b1-2)[Gal(b1-3)GlcNAc(b1-3)Gal(b1-4)GlcNAc(b1-3)Gal(b1-4)GlcNAc(b1-6)]Man(a1-6)[Gal(b1-3)GlcNAc(b1-3)Gal(b1-4)GlcNAc(b1-3)Gal(b1-4)GlcNAc(b1-2)Man(a1-3)]Man(b1-4)GlcNAc(b1-4)[Fuc(a1-6)]GlcNAc
Procedure, shortened: as §1

[4] = biological target: Gal(b1-3)GlcNAc(b1-3)Gal(b1-4)GlcNAc(b1-6)[Gal(b1-3)GlcNAc(b1-3)]Gal(b1-4)Glc
Procedure, shortened: as §1

[5] = biological target: Gal(b1-3)GlcNAc(b1-3)Gal(b1-4)[Fuc(a1-3)]GlcNAc
Procedure, shortened: as §1

[6] = biological target: Gal(b1-3)GlcNAc(b1-3)Gal(b1-4)[Fuc(a1-3)]GlcNAc(b1-6)[Gal(b1-3)GlcNAc(b1-3)]Gal(b1-4)Glc
Procedure, shortened: as §1

[7] = biological target: Gal(b1-3)GlcNAc(b1-3)GalNAc
Procedure, shortened: as §1

[8] = biological target: Gal(b1-3)GlcNAc(b1-6)Gal(b1-4)GlcNAc
Procedure, shortened: as §1

[9] = biological target: Gal(b1-3)GlcNAc(b1-6)GalNAc
Procedure, shortened: as §1

[10] = biological target: Gal(b1-3)GlcNAc(b1-6)[Gal(b1-3)]GalNAc
Procedure, shortened: as §1

Gal(b1-3)GlcNAc6S = biological target: Gal(b1-3)GlcNAc6S
Procedure, shortened: as §1

[11] = biological target: Gal(b1-3)[Fuc(a1-4)]GlcNAc
Procedure, shortened: as §1

[12] = biological target: Gal(b1-3)[Fuc(a1-4)]GlcNAc(b1-2)Man
Procedure, shortened: as §1

[13] = biological target: Gal(b1-3)[Fuc(a1-4)]GlcNAc(b1-2)Man(a1-3)[Gal(b1-3)[Fuc(a1-4)]GlcNAc(b1-2)Man(a1-6)]Man(b1-4)GlcNAc(b1-4)GlcNAc
Procedure, shortened: as §1

[14] = biological target: Gal(b1-3)[Fuc(a1-4)]GlcNAc(b1-2)Man(a1-3)[Gal(b1-3)[Fuc(a1-4)]GlcNAc(b1-2)Man(a1-6)]Man(b1-4)GlcNAc(b1-4)[Fuc(a1-6)]GlcNAc
Procedure, shortened: as §1

[15] = biological target: Gal(b1-3)[Fuc(a1-4)]GlcNAc(b1-3)Gal(b1-3)[Fuc(a1-4)]GlcNAc
Procedure, shortened: as §1

[16] = biological target: Gal(b1-3)[Fuc(a1-4)]GlcNAc(b1-3)Gal(b1-4)GlcNAc
Procedure, shortened: as §1

[17] = biological target: Gal(b1-3)[Fuc(a1-4)]GlcNAc(b1-3)Gal(b1-4)[Fuc(a1-3)]GlcNAc
Procedure, shortened: as §1

[18] = biological target: Gal(b1-3)[Fuc(a1-4)]GlcNAc(b1-6)GalNAc
Procedure, shortened: as §1

[19] = biological target: Gal(b1-3)[GlcNAc(b1-6)]GalNAc
Procedure, shortened: as §1

[20] = biological target: Gal(b1-3)[Neu5Ac(a2-6)]GalNAc
Procedure, shortened: as §1

[21] = biological target: Gal(b1-3)[Neu5Ac(a2-6)]GlcNAc(b1-4)Gal(b1-4)Glc
Procedure, shortened: as §1

[22] = biological target: Gal(b1-3)[Neu5Ac(a2-6)]GlcNAc(b1-6)Gal(b1-4)Glc
Procedure, shortened: as §1

[23] = biological target: Gal(b1-3)[Neu5Ac(b2-6)]GalNAc
Procedure, shortened: as §1

Gal(b1-4)Gal = biological target: Gal(b1-4)Gal
Procedure, shortened: as §1

[24] = biological target: Gal(b1-4)GalNAc(a1-3)[Fuc(a1-2)]Gal(b1-4)GlcNAc
Procedure, shortened: as §1

[25] = biological target: Gal(b1-4)GalNAc(b1-3)[Fuc(a1-2)]Gal(b1-4)GlcNAc
Procedure, shortened: as §1

Gal(b1-4)Glc = biological target: Gal(b1-4)Glc
Procedure, shortened: as §1

Gal(b1-4)Glc6S = biological target: Gal(b1-4)Glc6S
Procedure, shortened: as §1

Gal(b1-4)GlcNAc = biological target: Gal(b1-4)GlcNAc
Procedure, shortened: as §1

[26] = biological target: Gal(b1-4)GlcNAc(a1-6)Gal(b1-4)GlcNAc
Procedure, shortened: as §1

Gal(b1-4)GlcNAc(b1-2)Man = biological target: Gal(b1-4)GlcNAc(b1-2)Man
Procedure, shortened: as §1

[27] = biological target: Gal(b1-4)GlcNAc(b1-2)Man(a1-3)Man(b1-4)GlcNAc(b1-4)GlcNAc
Procedure, shortened: as §1

[28] = biological target: Gal(b1-4)GlcNAc(b1-2)Man(a1-3)[Gal(b1-4)GlcNAc(b1-2)Man(a1-6)]Man(b1-4)GlcNAc(b1-4)GlcNAc
Procedure, shortened: as §1

[29] = biological target: Gal(b1-4)GlcNAc(b1-2)Man(a1-3)[Gal(b1-4)GlcNAc(b1-2)Man(a1-6)]Man(b1-4)GlcNAc(b1-4)[Fuc(a1-6)]GlcNAc
Procedure, shortened: as §1

[30] = biological target: Gal(b1-4)GlcNAc(b1-2)Man(a1-3)[Gal(b1-4)GlcNAc(b1-2)Man(a1-6)][Gal(b1-4)GlcNAc(b1-4)]Man(b1-4)GlcNAc(b1-4)[Fuc(a1-6)]GlcNAc
Procedure, shortened: as §1

[31] = biological target: Gal(b1-4)GlcNAc(b1-2)Man(a1-3)[Gal(b1-4)GlcNAc(b1-2)Man(a1-6)][GlcNAc(b1-4)]Man(b1-4)GlcNAc(b1-4)[Fuc(a1-6)]GlcNAc
Procedure, shortened: as §1

[32] = biological target: Gal(b1-4)GlcNAc(b1-2)Man(a1-3)[Gal(b1-4)GlcNAc(b1-2)][GlcNAc(b1-4)]Man(b1-4)GlcNAc(b1-4)GlcNAc
Procedure, shortened: as §1

[33] = biological target: Gal(b1-4)GlcNAc(b1-2)Man(a1-3)[GlcNAc(b1-2)Man(a1-6)]Man(b1-4)GlcNAc(b1-4)GlcNAc
Procedure, shortened: as §1

[34] = biological target: Gal(b1-4)GlcNAc(b1-2)Man(a1-3)[GlcNAc(b1-4)][Gal(b1-4)GlcNAc(b1-2)Man(a1-6)]Man(b1-4)GlcNAc(b1-4)GlcNAc
Procedure, shortened: as §1

[35] = biological target: Gal(b1-4)GlcNAc(b1-2)Man(a1-3)[Man(a1-6)]Man(b1-4)GlcNAc(b1-4)GlcNAc
Procedure, shortened: as §1

[36] = biological target: Gal(b1-4)GlcNAc(b1-2)Man(a1-6)Man(b1-4)GlcNAc(b1-4)GlcNAc
Procedure, shortened: as §1

[37] = biological target: Gal(b1-4)GlcNAc(b1-2)Man(a1-6)[GlcNAc(b1-2)Man(a1-3)]Man(b1-4)GlcNAc(b1-4)GlcNAc
Procedure, shortened: as §1

[38] = biological target: Gal(b1-4)GlcNAc(b1-2)Man(a1-6)[Man(a1-3)]Man(b1-4)GlcNAc(b1-4)GlcNAc
Procedure, shortened: as §1

[39] = biological target: Gal(b1-4)GlcNAc(b1-2)[Gal(b1-4)GlcNAc(b1-4)]Man(a1-3)[Gal(b1-4)GlcNAc(b1-2)Man(a1-6)]Man(b1-4)GlcNAc(b1-4)GlcNAc
Procedure, shortened: as §1

B1: PpFlo1 (Pichia pastoris) (protein)
chain: MGSSHHHHHHSSGLVPRGSHMQESGDGDISDSAYACDIDATRYDGFNATIYEFQPGDGRLTRDPVFMSTGYLNRTQLHSITGVTDPGFSIYTPGVPTTTLYGIPNVNWENLLLELKGYFRAEVSGDYGLSLRNIDDSAILFFGKETAFQCCNENSISNEASTDYSLFTIFRQEGDETTNLDSFTYTQYLEAGKYYPVRTFFVNIERHAVFNFTMTLPDGTELTDFHNYIYQFGALDEEQCQA
[1]
  glycan array binding signal (z-score): 0.317
[2]
  glycan array binding signal (z-score): -0.145
[3]
  glycan array binding signal (z-score): 0.485
[4]
  glycan array binding signal (z-score): -0.268
[5]
  glycan array binding signal (z-score): -0.202
[6]
  glycan array binding signal (z-score): -0.148
[7]
  glycan array binding signal (z-score): -0.531
[8]
  glycan array binding signal (z-score): -0.353
[9]
  glycan array binding signal (z-score): -0.654
[10]
  glycan array binding signal (z-score): -0.33
Gal(b1-3)GlcNAc6S
  glycan array binding signal (z-score): -0.012
[11]
  glycan array binding signal (z-score): -0.359
[12]
  glycan array binding signal (z-score): 1.02
[13]
  glycan array binding signal (z-score): -0.787
[14]
  glycan array binding signal (z-score): 0.159
[15]
  glycan array binding signal (z-score): -0.018
[16]
  glycan array binding signal (z-score): -0.765
[17]
  glycan array binding signal (z-score): 1.2
[18]
  glycan array binding signal (z-score): 0.132
[19]
  glycan array binding signal (z-score): 0.099
[20]
  glycan array binding signal (z-score): 0.609
[21]
  glycan array binding signal (z-score): 0.298
[22]
  glycan array binding signal (z-score): 1.21
[23]
  glycan array binding signal (z-score): -0.233
Gal(b1-4)Gal
  glycan array binding signal (z-score): -0.334
[24]
  glycan array binding signal (z-score): -0.298
[25]
  glycan array binding signal (z-score): 0.161
Gal(b1-4)Glc
  glycan array binding signal (z-score): -0.034
Gal(b1-4)Glc6S
  glycan array binding signal (z-score): -0.328
Gal(b1-4)GlcNAc
  glycan array binding signal (z-score): -0.376
[26]
  glycan array binding signal (z-score): 0.435
Gal(b1-4)GlcNAc(b1-2)Man
  glycan array binding signal (z-score): 0.008
[27]
  glycan array binding signal (z-score): 0.264
[28]
  glycan array binding signal (z-score): -0.032
[29]
  glycan array binding signal (z-score): -0.323
[30]
  glycan array binding signal (z-score): 0.235
[31]
  glycan array binding signal (z-score): -0.115
[32]
  glycan array binding signal (z-score): -0.774
[33]
  glycan array binding signal (z-score): 0.575
[34]
  glycan array binding signal (z-score): -0.214
[35]
  glycan array binding signal (z-score): 1.6
[36]
  glycan array binding signal (z-score): 0.002
[37]
  glycan array binding signal (z-score): 0.086
[38]
  glycan array binding signal (z-score): -0.185
[39]
  glycan array binding signal (z-score): 0.116
